# Assay results as given in article PMC4336329 (PLoS ONE, 2015).
# In all, about 310,000 compounds went through this assay and about 2,200 (0.71%) showed an effect of 50% or more. The effect is printed as a negative number. Some of the results follow.
# Molecular target: human ether-à-go-go-related gene (hERG) potassium channel (human, UniProt Q12809)
# Assay: primary screen, population patch clamp on CHO cells stably expressing hERG
# Chain of human ether-à-go-go-related gene (hERG) potassium channel (Q12809 whole entry, looked up): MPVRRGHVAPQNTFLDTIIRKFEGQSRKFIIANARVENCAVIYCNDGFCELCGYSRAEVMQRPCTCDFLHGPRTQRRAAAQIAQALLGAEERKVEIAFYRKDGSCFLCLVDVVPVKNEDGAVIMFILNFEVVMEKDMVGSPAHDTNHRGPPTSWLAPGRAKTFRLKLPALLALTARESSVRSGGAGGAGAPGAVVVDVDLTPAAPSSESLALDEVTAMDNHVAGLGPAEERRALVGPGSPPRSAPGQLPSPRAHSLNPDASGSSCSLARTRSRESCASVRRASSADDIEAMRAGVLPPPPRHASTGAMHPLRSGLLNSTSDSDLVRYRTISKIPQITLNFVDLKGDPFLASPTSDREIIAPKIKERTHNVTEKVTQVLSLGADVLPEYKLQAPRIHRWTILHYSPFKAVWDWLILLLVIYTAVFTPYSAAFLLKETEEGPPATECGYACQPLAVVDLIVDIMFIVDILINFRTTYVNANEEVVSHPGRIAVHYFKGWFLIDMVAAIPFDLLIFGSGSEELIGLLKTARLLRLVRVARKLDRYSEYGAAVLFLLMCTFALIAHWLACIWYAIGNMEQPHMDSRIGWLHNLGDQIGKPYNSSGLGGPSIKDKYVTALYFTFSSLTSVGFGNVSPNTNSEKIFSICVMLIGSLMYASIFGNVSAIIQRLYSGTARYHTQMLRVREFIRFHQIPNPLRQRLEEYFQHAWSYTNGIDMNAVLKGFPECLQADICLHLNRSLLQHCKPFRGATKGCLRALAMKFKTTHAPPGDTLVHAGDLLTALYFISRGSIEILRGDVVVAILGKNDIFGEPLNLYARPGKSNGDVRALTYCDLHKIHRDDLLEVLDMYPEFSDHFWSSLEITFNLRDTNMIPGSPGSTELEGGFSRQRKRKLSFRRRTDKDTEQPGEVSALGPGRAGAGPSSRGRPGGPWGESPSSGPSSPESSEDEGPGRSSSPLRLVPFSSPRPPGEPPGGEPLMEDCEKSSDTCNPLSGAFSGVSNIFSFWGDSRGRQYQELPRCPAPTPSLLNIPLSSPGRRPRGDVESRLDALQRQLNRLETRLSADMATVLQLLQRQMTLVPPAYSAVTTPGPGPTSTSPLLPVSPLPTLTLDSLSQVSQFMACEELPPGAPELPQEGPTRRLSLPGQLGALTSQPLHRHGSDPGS
row,Compound,"hERG current change (%, negative = inhibition) at 1uM"
1,Cc1c(NC(=O)CCc2ccccc2)cccc1[N+](=O)[O-],4.99%
2,COc1ccccc1-n1cnnc1SCC(=O)c1cc(C)n(Cc2cccs2)c1C,-1.64%
3,CCn1cc(C(=O)Nc2ccc(C)cc2[N+](=O)[O-])c(C)n1,6.98%
4,COc1ccc(/C=N/Nc2ccc([N+](=O)[O-])cc2S(=O)(=O)N2CCN(C)CC2)cc1,11.7%
5,COc1ccc(CNS(=O)(=O)NCc2ccc(C)cc2)cc1,14.4%
6,O=c1[nH]c(=O)n(-c2ccccc2)c2c1C(C(F)(F)F)(C(F)(F)F)N=C(CCC1CCCCC1)N2,0.372%
7,COc1ccc(-c2ccc(SCC(=O)c3cccs3)nn2)cc1,9.88%
8,CSc1ccc(Cl)c(C(=O)NCc2ccco2)c1,10.3%
9,COc1ccc(C(=O)NCCNC(C)=O)cc1S(=O)(=O)NCc1ccc(Cl)cc1,-1.21%
10,O=C(Cc1ccc(Br)cc1)NCCc1ccc(F)cc1,17.5%
11,O=C1c2ccccc2C(=O)N1n1c(=O)[nH]c2ccccc2c1=O,9.46%
12,COc1nccnc1NS(=O)(=O)c1ccc(NC(=S)NC(=O)c2ccccc2)cc1,19.5%
13,Cc1c(C(=O)OCC(C)C)[nH]c2c1C(=O)CC(c1cccs1)C2 (centres unmarked),18.7%
14,Cc1ccc(C(C)C)cc1OCC(=O)N/N=C/c1ccc2c(c1)OCCO2,11.8%
15,Cc1ccc(CNC(=O)CCNS(=O)(=O)c2cccs2)cc1,-5.94%
16,COc1cc(/C=N/NC(=O)C(=O)NCC2CCCO2)ccc1OCC(=O)N1CCOCC1 (centres unmarked),15.3%
17,O=C(CCCN1C(=O)/C(=C/c2ccccc2Cl)SC1=S)Nc1cccnc1,3.46%
18,COc1ccc(NC(=O)Nc2ccccc2SC)c(OC)c1,18.1%
19,CC(NC(=S)NC1CCCCC1)c1ccc(C(C)(C)C)cc1 (centres unmarked),11.6%
20,Cc1cc(Oc2ccc(Br)cc2)nc(SCC(=O)c2ccccc2)n1,4.98%
21,COc1ccc(/C(O)=C2/C(=O)C(=O)N(Cc3cccnc3)C2c2ccncc2)cc1F (centres unmarked),19.4%
22,O=C(NCc1ccccc1)C1=C[C@H](c2ccc(Br)cc2)C[C@H](OCc2ccc(CO)cc2)O1,8.76%
23,COc1ccc(NC(=O)CCCNS(=O)(=O)c2cccs2)cc1,7.9%

row,Compound,"hERG current change (%, negative = inhibition) at 1uM"
1,O=C(CSc1nc2nccnc2c(=O)n1Cc1cccs1)Nc1ccccc1F,-5.77%
2,Cc1cc(-c2ccccc2)n2nc(C)c(C#N)c2n1,18.2%
3,O=C(Nc1ccc(Cl)c(C(F)(F)F)c1)C(=O)N1CCCCC1,13.2%
4,O=C(C(=C1NCCN1)n1cncn1)c1ccccc1,11.4%
5,COc1ccc(C(=O)Nc2nc3c(s2)Cc2cc(OC)ccc2-3)cc1,1.93%
6,O=C(O)C1CCCCC1C(=O)OCCCCOC(=O)C1CCCCC1C(=O)O (centres unmarked),5.74%
7,Cc1cc(N2CCCC2=O)ccc1S(=O)(=O)Nc1c(C)nn(C)c1C,9.25%
8,Cc1ccc(-c2csc(N3CCN(c4cc5c(cc4Cl)nc(C)n5CCN4CCCCC4)CC3)n2)cc1,12%
9,O=C1CCCC1C(=O)Nc1ccc2ccccc2c1 (centres unmarked),4.3%
10,Nn1c(C2CCC2)nc2ccccc2c1=O,8.84%
11,O=C(Cn1cnc2ccccc21)Nc1cc(C(F)(F)F)ccc1N1CCOCC1,0.981%
12,C=CCOc1ccc(CN(C)CC(=O)Nc2ccc3c(c2)CCC3)cc1.O=C(O)C(=O)O,8.97%
13,CCCCNC(=O)CSc1nc2cc3c(cc2c(=O)n1Cc1ccco1)OCO3,10.1%
14,COc1nc(N(C)C)nc(N(C#N)CCOC(C)=O)n1,14.1%
15,O=C(c1ccc(F)cc1)N(Cc1cccs1)C1CCS(=O)(=O)C1 (centres unmarked),7.97%
16,COc1ccc(-c2nc3n(n2)C(=O)CC(c2ccco2)S3)cc1 (centres unmarked),-4.27%
17,COc1ccc(C(=O)NCC(=O)N/N=C/c2cccc(OC(=O)c3ccco3)c2)cc1OC,17.4%
18,CCOCc1nnc(NC(=O)c2cc(OC)c(OC)cc2[N+](=O)[O-])s1,14.9%
19,Cn1nc([N+](=O)[O-])nc1N1CCN(c2ccc(F)cc2)CC1,-19.7%
20,O=C(Cn1cc([N+](=O)[O-])cn1)Nc1ccccn1,15.9%
21,Cc1ccc(NC(=O)[C@@H](NC(=O)N2C[C@H]3C[C@@H](C2)c2cccc(=O)n2C3)C(C)C)cc1,6.66%
22,C/C(=N\NC(=O)COc1ccccc1-c1ccccc1)c1cccnc1,-10.2%
23,CCc1cc2c(=O)c(-c3ccon3)c(N)oc2cc1OC,8.09%

row,Compound,"hERG current change (%, negative = inhibition) at 1uM"
1,COc1ccc(N2CCN(C(=O)CSc3nnc(CNc4ccccc4)o3)CC2)cc1,4.76%
2,COc1ccc(OC(=O)C2CC(=O)N(c3ccc(C)cc3)C2)cc1 (centres unmarked),13.7%
3,Oc1ccccc1N1CCN(CC(O)COCc2ccccc2Cl)CC1 (centres unmarked),-12.9%
4,O=C(Oc1ccc(F)c(F)c1)c1ccc2c(=O)n3c(nc2c1)CCC3,10.5%
5,Cn1c2c(c(=O)n(C)c1=O)C(c1cccc(F)c1)C(C#N)=C(N)O2 (centres unmarked),14.5%
6,C=CCn1c(Cc2cccs2)nnc1SC/C=C/c1ccccc1,1.58%
7,O=C(Nc1ccc(C(=O)O)cc1)/C(=C\c1ccco1)NC(=O)c1ccco1,5.91%
8,CC(=O)N1c2ccccc2C(C)(C)C2CCC(C)CC21 (centres unmarked),-6.13%
9,CCN(CC)CCNC(=S)Nc1ccc2nc(N3CCOCC3)cc(C)c2c1,8.68%
10,COc1ccc(-c2cc3cc(OC)c(OC)cc3c(C)n2)cc1C,7.56%
11,Cc1ccc(C(=O)NCc2ccccn2)cc1NC1=NC2CS(=O)(=O)CC2S1 (centres unmarked),16.2%
12,O=C(c1cc2cc(Cl)ccc2oc1=O)N1CCN(c2ccccn2)CC1,7.98%
13,CC1CCN(C(=O)CCNS(=O)(=O)c2ccc(Br)cc2)CC1,5.93%
14,O=C(CSc1nnc(CNC(=O)c2c(F)cccc2Cl)o1)NC1CCCC1,19.8%
15,O=C(CCCc1nc(-c2ccccc2Cl)no1)NC1CCCC1,12.6%
16,Cn1nnnc1Sc1ccc([N+](=O)[O-])cc1Cl,4.66%
17,Cc1ccc(S(=O)(=O)NCc2ccc3c(c2)OCO3)cc1C,6.71%
18,COc1ccc(NC(=O)c2ccsc2NC(C)=O)cc1,14.6%
19,CCN1CCN(CC(=O)N2c3ccccc3Sc3ccccc32)CC1,22%
20,COc1ccc(NC(C)=O)cc1NC(=O)CSc1nnc(C2CCCCC2)n1N,8.45%
21,CCOc1ccccc1-n1c(CNc2ccc(F)cc2)nnc1SCC(=O)NCc1ccco1,-5.71%
22,CN(Cc1ccccc1)C(=O)c1[nH]cnc1C(=O)Nc1ccc(Cl)cc1,22.1%
23,COc1ccccc1OCc1ccc(C(=O)NC(C)(C)C)o1,11.1%

row,Compound,"hERG current change (%, negative = inhibition) at 1uM"
1,CC(C)N1C(=O)C2(OCCCO2)c2cc(Br)ccc21,23.6%
2,O=C(CC12CC3CC(CC(C3)C1)C2)NCO,8.9%
3,O=C(c1ccco1)N1CCN(CCOc2ccccc2)CC1,10.3%
4,CC(Sc1ccccc1)C(=O)NCCc1ccccc1 (centres unmarked),9.22%
5,Cc1cc2c(c(=O)n1CCc1ccccc1)C(c1ccco1)C(C#N)=C(N)O2 (centres unmarked),0.895%
6,CCOc1ccc(S(=O)(=O)Nc2cccc(C)c2)c2cccnc12,13.7%
7,COc1ccc(-n2c(Cc3cccn3C)nnc2SCC(=O)Nc2cccc(Cl)c2)cc1,3.32%
8,CC(=O)Nc1ccc(/C=C2/Sc3ccccc3C2=O)cc1,16.4%
9,Cn1c(SCC(=O)c2ccc3c(c2)OCCO3)nnc1C1CC1,8.32%
10,O=Cc1cn(-c2ccccc2)nc1-c1ccccc1,12%
11,O=C(O)CC/C(=C\c1ccc2c(c1)OCO2)c1nc2ccccc2s1,10.6%
12,Cc1ccc(OCc2nnc(SCC(=O)C(C)(C)C)n2Cc2ccco2)cc1,-1.91%
13,CC(=O)N1c2ccc(S(=O)(=O)NCCC(=O)Nc3ccc(C)c(F)c3)cc2CC1C (centres unmarked),9.62%
14,CC(C)c1c(C(=O)N/N=C/C=C/c2ccccc2)nnn1-c1nonc1N,23.1%
15,Cc1noc(N)c1C(=O)Nc1ccc(C(C)(C)C)cc1,-5.42%
16,Cc1ccc(NC(=O)C2CCN(C(=O)[C@@H]3Cc4ccccc4CN3)CC2)cc1,-19%
17,O=C(CNC(=O)c1ccccc1F)N/N=C/c1cccs1,14.2%
18,C/C(=N\NC(=O)c1ccco1)c1ccc(-c2ccccc2)cc1,4.99%
19,COc1cccc(-c2nnc(SCC(=O)N3CCCc4ccccc43)o2)c1,8.75%
20,O=C(Nc1cccc(-c2cn3ccsc3n2)c1)c1ccccc1,6.17%
